# In all, about 33,000 sequences were measured (“E-score (-0.5 to 0.5)”: median about -0.01, highest 2% from about 0.26 on). This is one part of the list.
# Target: Ste12 (UniProt P13574)
# Assay: PBM E-score (8-mer binding enrichment) (E-score (-0.5 to 0.5)); higher = stronger / more preferred TF binding; most listed sequences are background and not binding sites
# Conditions: protein concentration: 200 nM; construct: GST-DNA-binding domain
# Summary of the method: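 Universal all-10-mer Agilent arrays, double-stranded by primer extension on fresh or once-stripped slides, were probed with about 100-200 nM GST-tagged yeast transcription factors made by PURExpress. Fluorescent anti-GST detected bound protein, and masliner normalised the scans. E-scores from the Universal PBM Analysis Suite were given to each ungapped eight-base word pooled with its reverse complement.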
row,Sequence,PBM E-score
1,AACAACTT,0.0876
2,GCCACGGA,-0.0989
3,CTCCCATC,0.0151
4,CAGAGACA,-0.268
5,ACACCTCT,0.0377
6,GACTATCC,-0.116
7,ATTAGTAG,0.077
8,CCGGGTAC,-0.0322
9,CTCACCCA,-0.0141
10,CAACGACC,-0.144
11,GTGGGAAA,-0.0176
12,AGGACCCC,-0.156
13,CGGGCCCA,-0.162
14,CCGATTCA,-0.00586
15,ATTAGACC,0.113
16,CCGCAAAA,0.25
17,AACCCGAA,0.207
18,ACCTCTTG,-0.049
19,TAGCACGA,-0.0764
20,TGCTACCA,-0.0899
21,CTACACTC,-0.0629
22,AGACCCGA,0.142

row,Sequence,PBM E-score
1,CCGCGTCA,-0.13
2,AGCCTAGC,-0.193
3,AACCCTCT,-0.19
4,CCGATGCC,-0.014
5,ATTTGCGG,0.148
6,TAGCGAGA,-0.0872
7,AATCGAAG,0.177
8,CACTCCGG,0.2
9,CAATCCTG,0.131
10,ATGGCTGA,0.0365
11,CGCCGGAC,-0.0359
12,CAGCCGCC,-0.0357
13,ACTAGAGC,-0.109
14,ACATAGGA,-0.0111
15,GCTCTCGA,-0.0609
16,GAGTTCGA,-0.038
17,AATCGGGG,0.135
18,AATATAGC,0.0583
19,AGAAGAAA,0.0885
20,GCTAGCAA,-0.298
21,CGCGGGGC,0.0924
22,AATTATCG,0.219

row,Sequence,PBM E-score
1,TGCGCACA,-0.027
2,TACTAGTA,0.0847
3,ATATTACC,0.17
4,GAGGTCCC,-0.0333
5,ACCAAACG,0.122
6,ACTCCAGT,0.063
7,GAGTTTAC,-0.043
8,CTACTGTC,-0.134
9,ACTAACAT,0.047
10,GCCCCTTA,-0.139
11,GCCCTAAA,-0.16
12,ACTCTTCG,-0.164
13,GCTAACTA,0.0593
14,AGTACGAG,0.00099
15,AACGGCGT,-0.0216
16,CGACTTAG,-0.0645
17,AAAGCGGG,-0.0943
18,AATCGAAA,0.203
19,GCAACGAC,-0.176
20,CTCATGTA,0.198
21,AGCAGATG,-0.0847
22,CCATTTCA,-0.06

row,Sequence,PBM E-score
1,CGCGACTC,0.00144
2,TATAGAGA,-0.0992
3,CGTGACAC,0.11
4,ATTTGAAG,0.0968
5,GACCTACC,-0.137
6,CGTATTCA,0.0428
7,ATATCGAC,0.216
8,CGATTACG,-0.133
9,ATACCAGC,-0.145
10,AGGTTGAT,-0.0776
11,GAGACCAC,-0.114
12,CGATCGGA,-0.0201
13,AGTTTGTA,0.106
14,CCGACTCA,-0.0229
15,CAAGAGTA,-0.0273
16,ACCAAGCT,-0.0594
17,CATGTTGG,0.0695
18,GGCAATCA,-0.0163
19,CACCAGGG,-0.121
20,ACGAGTAT,-0.0253
